Data as given in the supplement of paper PMC12067230.
Single values of this set are uncertain.

assay: amyloid nucleation score relative to library mode (yeast Sup35 reporter selection) (log enrichment difference); higher = more amyloid nucleation; sequences are the first 22 residues of the Bri2 peptide extended by up to 12 random residues; conditions: random library (experiment): 1;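 active = nucleation score significantly above 0 at FDR 0.05; inactive = not significantly above 0 or absent from output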
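Further: [psi-pin-] Saccharomyces cerevisiae expressing SupN fusions, induced by 100 µM Cu2SO4, selected 7 d at 30 °C without adenine and uracil, scored by deep sequencing of output versus input.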

| Sequence | amyloid nucleation score |
| --- | --- |
| EASNCFAIRHFENKFAVETLICNTWSRMRVGLKR | inactive |
| EASNCFAIRHFENKFAVETLICPQA | inactive |
| EASNCFAIRHFENKFAVETLICMAFHGV | 6.29 |
| EASNCFAIRHFENKFAVETLICALESM | inactive |
| EASNCFAIRHFENKFAVETLICPVTSKSWSAGRA | inactive |
| EASNCFAIRHFENKFAVETLICRSCNVALGWRQG | 6.26 |
| EASNCFAIRHFENKFAVETLICVRTRCGNVGWSC | inactive |
| EASNCFAIRHFENKFAVETLICDSVVPRRGPWLW | 2.78 |
| EASNCFAIRHFENKFAVETLICPSIGKWHVGPWG | 0.0198 |
| EASNCFAIRHFENKFAVETLICRDPMWQDLASAF | inactive |
| EASNCFAIRHFENKFAVETLICRCHNVTDMVFVN | inactive |
| EASNCFAIRHFENKFAVETLICLSFFTLMHNKV | inactive |
| EASNCFAIRHFENKFAVETLICREEVLRT | inactive |
| EASNCFAIRHFENKFAVETLICLNDKGIGTHVFK | 1.03 |
| EASNCFAIRHFENKFAVETLICRRRTDEAGGHAR | inactive |
| EASNCFAIRHFENKFAVETLICVCMI | 4.68 |
| EASNCFAIRHFENKFAVETLICLVNCSQHRYL | 4.46 |
| EASNCFAIRHFENKFAVETLICVLHFETVRTSKT | inactive |
| EASNCFAIRHFENKFAVETLICCVYYSERSRILS | 6.15 |
| EASNCFAIRHFENKFAVETLICDGHMPTWSQVWL | inactive |
| EASNCFAIRHFENKFAVETLICGGPSLWRAVRA | inactive |
| EASNCFAIRHFENKFAVETLICHRTRPMHYCVKP | 0.148 |
| EASNCFAIRHFENKFAVETLICEYVVNGKVRAAR | 3.06 |
| EASNCFAIRHFENKFAVETLICTSHLSGAMLARG | inactive |
| EASNCFAIRHFENKFAVETLICRIRPILSTCAVS | inactive |
| EASNCFAIRHFENKFAVETLICIFEH | 7.2 |
| EASNCFAIRHFENKFAVETLICVKRRPCTEFQPY | inactive |

| Sequence | amyloid nucleation score |
| --- | --- |
| EASNCFAIRHFENKFAVETLICEGHAVVSACSWE | inactive |
| EASNCFAIRHFENKFAVETLICQV | inactive |
| EASNCFAIRHFENKFAVETLICLSDMWTALVWSG | inactive |
| EASNCFAIRHFENKFAVETLICYVLRYIQ | inactive |
| EASNCFAIRHFENKFAVETLICRNNHLFVVLDLR | inactive |
| EASNCFAIRHFENKFAVETLICCFHRCLLYDAGD | 3.61 |
| EASNCFAIRHFENKFAVETLICRCSYHLGFDHIN | 2.87 |
| EASNCFAIRHFENKFAVETLICLEYVT | inactive |
| EASNCFAIRHFENKFAVETLICWEKRKSWVWCRV | inactive |
| EASNCFAIRHFENKFAVETLICNMACLAKPSVPW | 6.7 |
| EASNCFAIRHFENKFAVETLICECGCTEYGQSEA | inactive |
| EASNCFAIRHFENKFAVETLICYLIPSMC | inactive |
| EASNCFAIRHFENKFAVETLICNLACVCRRCAAR | 7.5 |
| EASNCFAIRHFENKFAVETLICYGADDGLLCPRW | 1.96 |
| EASNCFAIRHFENKFAVETLICPCCGSRHRQDEM | 7.4 |
| EASNCFAIRHFENKFAVETLICGNHRGLGQVTWL | 3.65 |
| EASNCFAIRHFENKFAVETLICVTVRRRGPSWLY | -0.146 |
| EASNCFAIRHFENKFAVETLICPAVKRQRNTDSL | 0.348 |
| EASNCFAIRHFENKFAVETLICRQSLAAWTPVGR | 0.573 |
| EASNCFAIRHFENKFAVETLICVIRARRGFSNLV | inactive |
| EASNCFAIRHFENKFAVETLICGLSRRTGAVRVR | inactive |
| EASNCFAIRHFENKFAVETLICKVEWRWAKET | inactive |
| EASNCFAIRHFENKFAVETLICEANIT | inactive |
| EASNCFAIRHFENKFAVETLICTYQTSMDRYGMS | 0.944 |
| EASNCFAIRHFENKFAVETLICFHNVCLLMCRM | inactive |
| EASNCFAIRHFENKFAVETLICEPFEARVFCLGW | 5.65 |

same assay, conditions: random library (experiment): 2

| Sequence | amyloid nucleation score |
| --- | --- |
| EASNCFAIRHFENKFAVETLICAYECRDFVLVCL | 4.02 |
| EASNCFAIRHFENKFAVETLICVSQDWLSLTNLQ | -0.0392 |
| EASNCFAIRHFENKFAVETLICELLRDNNTPRVK | inactive |
| EASNCFAIRHFENKFAVETLICTFQGIVLWYWM | inactive |
| EASNCFAIRHFENKFAVETLICRSGKSRCNSI | -0.207 |
| EASNCFAIRHFENKFAVETLICDFKVGCVSMLTG | 2.64 |
| EASNCFAIRHFENKFAVETLICLRSPFIILTYRW | inactive |
| EASNCFAIRHFENKFAVETLICRGGV | inactive |
| EASNCFAIRHFENKFAVETLICPNMSY | inactive |
| EASNCFAIRHFENKFAVETLICWANCEDYSVVCG | 3.08 |
| EASNCFAIRHFENKFAVETLICGLRFYGHNRGC | 5.37 |
| EASNCFAIRHFENKFAVETLICNMHSAYICYFRQ | inactive |
| EASNCFAIRHFENKFAVETLICKFICEDCDCFSR | 6.51 |
| EASNCFAIRHFENKFAVETLICRMMGW | inactive |
| EASNCFAIRHFENKFAVETLICWLMLDHKLEVML | inactive |
| EASNCFAIRHFENKFAVETLICDTVNYNRPSGCL | 7.12 |
| EASNCFAIRHFENKFAVETLICTHMPP | inactive |
| EASNCFAIRHFENKFAVETLICVYNVQCC | inactive |
| EASNCFAIRHFENKFAVETLICYFQRSGIYYYGT | inactive |
| EASNCFAIRHFENKFAVETLICMFESGIFVVLCS | inactive |
| EASNCFAIRHFENKFAVETLICVSRSLA | inactive |
| EASNCFAIRHFENKFAVETLICDRCSMTKRSGMG | 0.503 |

| Sequence | amyloid nucleation score |
| --- | --- |
| EASNCFAIRHFENKFAVETLICFQIKTFSRVQYE | inactive |
| EASNCFAIRHFENKFAVETLICCMVCDFWFDSYG | 5.84 |
| EASNCFAIRHFENKFAVETLICFGCTYLVSFKCA | inactive |
| EASNCFAIRHFENKFAVETLICQRGIFYAMGCRL | 1.53 |
| EASNCFAIRHFENKFAVETLICFHVVSKNRVDWD | 2.27 |
| EASNCFAIRHFENKFAVETLICAEF | inactive |
| EASNCFAIRHFENKFAVETLICMFCCLGYRCLLI | inactive |
| EASNCFAIRHFENKFAVETLICYVWFVLRSHVRY | inactive |
| EASNCFAIRHFENKFAVETLICGYVVIMLSLYVW | inactive |
| EASNCFAIRHFENKFAVETLICGNDLFRRLQVSR | inactive |
| EASNCFAIRHFENKFAVETLICNESYYVLKGCKA | inactive |
| EASNCFAIRHFENKFAVETLICDCHDQK | 6.59 |
| EASNCFAIRHFENKFAVETLICYCGYNEQERCLI | inactive |
| EASNCFAIRHFENKFAVETLICNGRSNRGFNKHW | inactive |
| EASNCFAIRHFENKFAVETLICYKVSGIRMWCYG | inactive |
| EASNCFAIRHFENKFAVETLICFMHIVRNGITLC | inactive |
| EASNCFAIRHFENKFAVETLICIVAACVKHHSVW | inactive |
| EASNCFAIRHFENKFAVETLICMSLMPNRFHLKV | inactive |
| EASNCFAIRHFENKFAVETLICLTMFCFNLFYWL | inactive |
| EASNCFAIRHFENKFAVETLICDYLDSLHVRD | inactive |
| EASNCFAIRHFENKFAVETLICQYRVQCKFFKC | 0.762 |
| EASNCFAIRHFENKFAVETLICKKNLSFFYFESV | inactive |

same assay, conditions: random library (experiment): 3

| Sequence | amyloid nucleation score |
| --- | --- |
| EASNCFAIRHFENKFAVETLICTIMRLCMSYKHF | inactive |
| EASNCFAIRHFENKFAVETLICGSRRDVTFVYTP | inactive |
| EASNCFAIRHFENKFAVETLICRCQRRTGRRHAR | 9.38 |
| EASNCFAIRHFENKFAVETLICCVDISGIVFGYR | 6.68 |
| EASNCFAIRHFENKFAVETLICFAPTVGARTERC | inactive |
| EASNCFAIRHFENKFAVETLICTGALFFIRNGVR | 6.8 |
| EASNCFAIRHFENKFAVETLICCVCSAQRMRSLL | 5.74 |
| EASNCFAIRHFENKFAVETLICFSVRPPASLVGE | inactive |
| EASNCFAIRHFENKFAVETLICWSIHFVADEKWV | inactive |
| EASNCFAIRHFENKFAVETLICLAGGTTFEATYM | inactive |
| EASNCFAIRHFENKFAVETLICWKFATSAEYSPW | inactive |
| EASNCFAIRHFENKFAVETLICRFCTWRKASVSV | inactive |
| EASNCFAIRHFENKFAVETLICRVGTAWRSWGYG | inactive |
| EASNCFAIRHFENKFAVETLICRD | inactive |
| EASNCFAIRHFENKFAVETLICMQWPLSRRVWLA | inactive |
| EASNCFAIRHFENKFAVETLICTSFDFK | 1.2 |
| EASNCFAIRHFENKFAVETLICLFRSSFSWPLCV | inactive |
| EASNCFAIRHFENKFAVETLICVIMLQGKMGTSV | inactive |
| EASNCFAIRHFENKFAVETLICTCSWGFLIGVPM | inactive |
| EASNCFAIRHFENKFAVETLICCIGRTRMGMWGI | 5.27 |
| EASNCFAIRHFENKFAVETLICTVVSLRSPCARK | inactive |
| EASNCFAIRHFENKFAVETLICMVGS | inactive |
